Molecules are shown by their SMILES. The whole screen tested about 50,000 compounds, of which about 800 (1.6%) showed an effect of 50% or more. The list shows a part of the results.

In this assay the target is Bcl-2-like protein 10 (Homo sapiens) (UniProt Q9HD36). Put plainly: Phenotype converters, Bcl-B/TR3 peptide binding displacement, primary biochemical FP (AID 1240).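 Further: 0% = Bcl-B with tracer peptide and DMSO and 100% = tracer peptide lacking Bcl-B.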 The note with it: GST-Bcl-B / FITC-TR3 peptide fluorescence polarization; stronger effect = higher value; compound at 3.75 mg/L.
UniProt Q9HD36, sequence (Q9HD36 whole entry, looked up): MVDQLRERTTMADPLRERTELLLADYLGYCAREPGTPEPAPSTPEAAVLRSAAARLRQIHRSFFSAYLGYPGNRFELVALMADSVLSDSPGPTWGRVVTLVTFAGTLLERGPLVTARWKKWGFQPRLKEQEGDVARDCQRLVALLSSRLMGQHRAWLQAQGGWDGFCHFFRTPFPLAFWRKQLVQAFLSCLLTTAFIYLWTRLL
`CCOP(=O)(OCC)C1(O)C(=O)Nc2ccc(Br)cc21` (stereo unspecified): the displacement was determined as 7.7%.
Under `Cc1cc(OCc2ccc(Cl)cc2)c2c3c(c(=O)oc2c1)CCC3` stands 10.5%; under `Cc1cccc(C)c1N1CCN(c2c(C)cccc2C)CC1`, 5.9%.
`CCOC(=O)c1c(C)n(CC(O)CN2CCOCC2)c2cc(Br)c(OC)cc12` (stereo unspecified): the displacement is -9.8%.
On to `COc1ccc(CCNCc2ccc(Cl)cc2)cc1OC`, for which the displacement is -32.4%.
Consider `Cc1cccc(-n2c(=S)[nH]c3ccccc3c2=O)c1`, for which the displacement is -6.2%.
Under `CN(C)c1ccc(/C=C2\CC3C4CC=C5CC(O)CCC5(C)C4CCC3(C)C2=O)cc1` (stereo unspecified) stands 3.2%.
Turning to `Clc1cccc(CNCCc2c[nH]c3ccccc23)c1`, the displacement is -13.9%.
Take `O=C(COc1ccccc1[N+](=O)[O-])Nc1ccc(Cl)cc1C(=O)c1ccccc1`: the displacement was determined as 2.8%.
`CN(C)c1ccc(/C=C2\C(=O)NC(=S)N(c3cccc4ccccc34)C2=O)cc1`: the displacement is 27.9%.
With `Cc1ccc(N2C(=O)CC(=O)NC2=S)cc1`, the displacement came to 5.6%.
Turning to `O=C1Nc2ccc(Br)cc2C1=Cc1nc2ccccc2c(=O)n1-c1ccc(O)cc1`, the displacement is -1%.
Under `O=[N+]([O-])c1cccc(CN2CCN(Cc3cccc(Cl)c3)CC2)c1` stands -0.3%; under `Cc1ccc(-n2c(C)cc(/C=C3/C(=O)NC(=O)N(C)C3=O)c2C)cc1`, -10.4%.
Take `Cc1cc(-c2ccc(C=C3C(=O)NC(=S)NC3=O)o2)c(C)c([N+](=O)[O-])c1`: the displacement came to 15%.
Take `COC(=O)COc1ccc(C=C2C(=O)NC(=O)NC2=O)cc1`: the displacement came to 3.3%.
With `Cc1cccc(C(=O)NC(Oc2ccccc2[N+](=O)[O-])C(Cl)(Cl)Cl)c1` (stereo unspecified), the displacement came out at 6.3%.
As for `CCc1ccc(CNCCc2ccc(OC)cc2)cc1`, the displacement is -21.3%.
Under `CN1C(=O)C(=Cc2ccc(N3CCCC3)c([N+](=O)[O-])c2)C(=O)N(C)C1=O` stands 29.4%; under `CC(C)(C)c1ccc(OCCOc2ccccc2C=C2C(=O)NC(=O)NC2=O)cc1`, 4.6%.
Consider `Cc1cc(OCC(=O)C(C)(C)C)c2c3c(c(=O)oc2c1)CCC3`, for which the displacement was 10.3%.
The figure for `CN1C(=O)C(=Cc2ccc(C(=O)O)cc2)C(=O)N(C)C1=O` is -15.9%.
The figure for `Cc1ccc(C=C2C(=O)NC(=O)NC2=O)o1` is 8.8%; for `Oc1ccc(Br)cc1CN1CCN(Cc2ccc(Cl)cc2)CC1` it is 1.4%; for `Oc1ccc(Br)cc1CN1CCN(Cc2ccc(F)cc2)CC1` it is 7.7%.
Take `O=c1c2ccccc2nc(/C=C/c2ccc([N+](=O)[O-])cc2)n1-c1cccc(O)c1`: the displacement is 0%.
The figure for `CC(Cc1ccccc1)NC(=O)/C=C/c1ccco1` (stereo unspecified) is 3.1%.
Turning to `O=c1c2ccccc2nc(-c2ccccn2)n1-c1ccc(Cl)cc1`, the displacement was found to be 3.2%.
For the compound `COc1ccccc1-n1c(-c2cccs2)nc2ccccc2c1=O`, the displacement was -4.7%.
For the compound `CC(C)CCn1c(=O)c(C(=O)Nc2ccc(I)cc2)c(O)c2ccccc21`, the displacement came out at 7.1%.
On to `Cc1cccc(CN2CCN(Cc3ccc(F)cc3)CC2)c1`, for which the displacement is 5.2%.
On to `CCOc1ccc(CNCCc2ccc(Cl)cc2)cc1`, for which the displacement was -9.7%.
Under `COC(=O)c1[nH]cnc1C(=O)Nc1ccc(Br)cc1C(=O)c1ccccc1` stands 16.4%.
Take `COc1ccc(/C=C/c2nc3ccccc3c(=O)n2-c2ccc(O)cc2)cc1`: the displacement came to 9%.
Consider `Cc1cc(C=C2C(=O)NC(=S)NC2=O)c(C)n1-c1ccc(F)cc1`, for which the displacement was determined as 3.8%.
On to `CCCCSc1nc2ccccc2c(=O)n1-c1cccc(C)c1`, for which the displacement was -6.2%.
On to `O=[N+]([O-])c1ccc(CNCCc2ccc(Cl)cc2)cc1`, for which the displacement stood at 8.6%.
As to `Cc1ccccc1OP1(=O)OC(=O)c2cc(Cl)ccc2O1` (stereo unspecified), the displacement came out at 5.6%.
For `CCOc1ccc(N2C(=O)/C(=C/c3cc(Cl)ccc3O)C(=O)NC2=S)cc1`, the displacement was determined as 0.4%.
Turning to `c1cc2c(cc1CCNC1C3CC4CC(C3)CC1C4)OCO2` (stereo unspecified), the displacement was -15.9%.
For the compound `O=[N+]([O-])c1cc2c(cc1CNCCc1ccc(Cl)cc1Cl)OCO2`, the displacement was found to be 10.8%.
Turning to `CN1C(=O)NC(=O)/C(=C\c2ccc(OCc3ccc(C(=O)O)cc3)c(Br)c2)C1=O`, the displacement was -4.6%.
Under `COc1ccc(C=C2C(=O)NC(=S)NC2=O)cc1OCc1ccccc1Cl` stands 8.2%; under `Cn1c(O)c(C=NCc2cccs2)c(=O)n(C)c1=O`, 0.7%.
As to `CN1C(=O)NC(=O)/C(=C\c2ccc(Br)s2)C1=O`, the displacement was determined as 6%.
The figure for `CC1(C)CN1S(=O)(=O)c1ccc(Cl)cc1` (stereo unspecified) is 5.2%.
The figure for `O=c1c2ccccc2nc(/C=C/c2ccc([N+](=O)[O-])cc2)n1-c1ccccc1O` is -0.4%; for `Cc1nc2c(Cl)cc(Cl)cc2c(=O)n1-c1ccccc1F` it is -8.1%.
For `Oc1ccc(C(=C(Cl)Cl)c2ccc(O)cc2)cc1`, the displacement worked out at 5.3%.
As to `CCCCOc1cc(C)cc2oc(=O)c3c(c12)CCCC3`, the displacement was -6%.
Under `CCC1(C)CC(CCNCc2ccc(N(C)C)cc2)(c2ccc(F)cc2)CCO1` (stereo unspecified) stands -8.3%.
Turning to `CN(CN1C(=O)C(=O)c2cc([N+](=O)[O-])ccc21)[N+](=O)[O-]`, the displacement is -7.1%.
With `CCN1CC2([N+](=O)[O-])CC=C(Cl)C([N+](=O)[O-])(C1)C2` (stereo unspecified), the displacement was -18.7%.
With `CC(=O)NC1(c2ccccc2)CC(C)N(C)CC1C` (stereo unspecified), the displacement was determined as 10.7%.
For `COc1ccc(N2C(=O)/C(=C/c3ccc(I)o3)C(=O)NC2=S)cc1`, the displacement was -30.1%.
`CCCCc1ccc(C=C(C#N)C#N)s1`: the displacement is -8.4%.
Regarding `O=C1NC(=S)NC(=O)C1=Cc1cccc2ccccc12`, the displacement was found to be 0.7%.
On to `COc1ccc(O)c(CN2CCN(Cc3ccc(Cl)cc3)CC2)c1`, for which the displacement amounted to 13.6%.
Take `O=C(Cn1c[n+]([N-][N+](=O)[O-])cn1)N1CCN(C(=O)Cn2c[n+]([N-][N+](=O)[O-])cn2)CC1`: the displacement came out at 15%.
Take `O=C(CF)NC(=C(Cl)Cl)P(=O)(c1ccccc1)c1ccccc1`: the displacement is -1.7%.
Take `COc1cc(OC)c(OC)cc1CN1CCN(C(C)C)CC1`: the displacement is -5.4%.
For the compound `Cc1c(-c2ccc(C=C3C(=O)NC(=S)NC3=O)o2)ccc([N+](=O)[O-])c1C`, the displacement amounted to 23.7%.
As to `COc1ccc(C=C2C(=O)NC(=S)NC2=O)c(OC)c1`, the displacement is 11.9%.
For `Cc1ccc(C(=O)Nc2ccc(Cl)cc2C(=O)c2ccccc2)cc1[N+](=O)[O-]`, the displacement is -0.1%.
Take `O=C1NC(=S)NC(=O)C1=Cc1ccc(-c2ccc(S(=O)(=O)Nc3nccs3)cc2)o1`: the displacement stood at 2.6%.
As for `CC(Nc1ccc([N+](=O)[O-])c2cccnc12)c1ccc(Br)cc1` (stereo unspecified), the displacement was determined as 13%.
Turning to `CCN(CC)CCNc1ccc([N+](=O)[O-])c2cccnc12`, the displacement is 10.8%.
The figure for `O=C(COc1ccccc1)N1CCN(C2CCN(Cc3ccccc3)CC2)CC1` is -5.7%; for `O=C(Nc1ccc(Cl)cc1C(=O)c1ccccc1)c1cncc(Br)c1` it is 15.9%.
For the compound `Cc1cccc(-n2c(CN3C(=O)c4ccccc4C3=O)nc3ccccc3c2=O)n1`, the displacement is -16.3%.
Take `COc1ccccc1-n1c(/C=C/c2ccc(O)c(O)c2)nc2ccccc2c1=O`: the displacement is -24.6%.
Under `CCOC(=O)c1c(-c2ccccc2)n(Cc2ccccc2)c2ccc(OC(C)=O)cc12` stands -4.7%.
Under `O=C(c1ccc([N+](=O)[O-])cc1)C12CN3CN(CN(C3)C1)C2` stands 0%.
Under `O=c1c2cc(I)ccc2nc(/C=C/c2ccccc2O)n1-c1ccccc1` stands 8.4%; under `O=c1c2ccccc2nc(/C=C/c2cccc(Br)c2)n1-c1ccccc1O`, 2.8%.
For `O=C(COc1ccc2ccccc2c1)N1CCN(Cc2ccccc2[N+](=O)[O-])CC1`, the displacement came out at 7.9%.
Turning to `CC1CN(C)CCC1(O)c1ccccc1` (stereo unspecified), the displacement turned out to be 3.5%.
Take `O=[N+]([O-])c1ccc(N2CCNCC2)cc1NC1CC1`: the displacement worked out at 8.5%.
Under `O=C1NC(=S)N(c2cccc(Br)c2)C(=O)/C1=C/c1cccs1` stands 12.1%; under `O=c1c2ccccc2nc(-c2ccccc2F)n1-c1ccccc1Cl`, -8.7%; under `Cc1ccccc1CN1CCN(C(=O)COc2ccc3ccccc3c2)CC1`, -8.7%.
Turning to `CN1CCN(c2ccccc2[N+](=O)[O-])CC1`, the displacement is -15.4%.
Under `O=C(COc1ccc2ccccc2c1)N1CCN(Cc2ccc3c(c2)OCO3)CC1` stands -3.6%.
Under `CCC1(CC)C(=O)N(Cc2ccccc2)C(=O)N(Cc2ccccc2)C1=O` stands -2.4%; under `O=C1NC(=O)N(c2ccc(Br)cc2)C(=O)/C1=C/c1ccc(Oc2ccc([N+](=O)[O-])cn2)cc1`, 3%.
For the compound `Oc1ccc(Br)cc1CN1CCN(Cc2ccccc2F)CC1`, the displacement was -0.7%.
On to `Cc1ccccc1-n1c(-c2cccs2)nc2ccccc2c1=O`, for which the displacement is -3%.
Under `O=C1NC(=S)N(c2cccc(Br)c2)C(=O)/C1=C/C=C/c1ccccc1` stands -16.4%; under `COC(=O)C(Cc1ccccc1)N1CC1C(N)=O` (stereo unspecified), 12.4%; under `CC12CCCCC1=NC(c1ccccc1Cl)N2O` (stereo unspecified), -8%.
For `CC1(C)C(C(=O)NCc2ccco2)C1(C)C`, the displacement was determined as 19.1%.
`CC(C)N1CCC(N2CCCCC2)CC1`: the displacement is -7.6%.
For `COC(=O)N1[C@H](c2ccccc2)[C@@H]1c1ccccc1`, the displacement amounted to 11.9%.
In the case of `O=C1NC(=S)NC(=O)C1=Cc1ccc(OCc2cccc3ccccc23)cc1`, the displacement turned out to be 17.2%.
Take `O=C(c1ccccc1)c1cc(Cl)ccc1NC(=O)c1cc2ccccc2oc1=O`: the displacement was -7.2%.
Take `Cc1ccc(C=C2C(=O)NC(=O)NC2=O)cc1[N+](=O)[O-]`: the displacement is 8.3%.
With `CCCCC1(C)NCCN2C(=O)CSC21` (stereo unspecified), the displacement was 4.8%.
The figure for `CC1(C)C(c2ccccc2)=NC(c2cccnc2)N1O` (stereo unspecified) is 6.1%.
The figure for `COc1cc(C=C2C(=O)NC(=S)NC2=O)cc(Br)c1OCc1c(C)no[n+]1[O-]` is 6.5%; for `CC(C)C(=O)N1N=C(c2cccnc2)CC1(O)C(F)(F)F` (stereo unspecified) it is -2.2%.
For the compound `O=c1[nH]c(=O)n(Cc2ccccc2)c(O)c1C=C1C=Nc2ccccc21`, the displacement came to 8.6%.
With `Cc1[nH]c2ccccc2c1CN1CCOCC1`, the displacement came to 7.9%.
Turning to `CCCC(C)C1C(C#N)=C(N)Oc2c1c(=O)oc1ccccc21` (stereo unspecified), the displacement was -10.2%.
Turning to `CCCCCn1c(=O)c(C(=O)Nc2ccc(OC)cc2)c(O)c2ccccc21`, the displacement turned out to be 0%.
As for `CCC12CN3CCN(CC(C3)/C1=N\O)C2`, the displacement was determined as 5.4%.
For the compound `CC(=O)N1N=C2C3CCN(CC3)C2C1c1ccc([N+](=O)[O-])cc1` (stereo unspecified), the displacement came to 6.2%.
For `CC/C(=C\C=C\C1C=CC2CCCC2C1C(=O)c1ccc[nH]1)C1OC(C(C)C(=O)O)CCC1C` (stereo unspecified), the displacement turned out to be 12.9%.
Under `O=C(Cc1ccc(Br)cc1)N1CCN(Cc2ccccc2)CC1` stands 1.9%; under `Cc1cccc(-n2c(/C=C/c3ccc(O)cc3)nc3ccccc3c2=O)c1`, -4.6%.
On to `COc1cccc(C=C2C(=O)NC(=O)NC2=O)c1`, for which the displacement worked out at 9.8%.
Take `COc1ccccc1-n1c(/C=C/c2ccc(O)cc2)nc2ccccc2c1=O`: the displacement is 119%.

These data come from PubChem BioAssay AID1240 (Sanford-Burnham Center for Chemical Genomics, 2008).
